# Assay results from PubChem BioAssay AID504832 (National Center for Advancing Translational Sciences (NCATS), 2011).
# Out of some 310,000 compounds screened, about 18,000 (5.8%) were called active. Inconclusive results, whose numbers are uncertain, are shown with a selection of clear calls. The call rests on the fitted dose curve; in most records, active means well fitted inhibition curve with a large enough effect; inconclusive means small, poorly fitted or top-dose-only effect, or another doubt; inactive means no such curve, though single readings can be large or run the other way. Potencies of inconclusive entries are left out as doubtful fits.
# Test: Primary qHTS for delayed death inhibitors of the malarial parasite plastid, 48 hour incubation
# Settings: P. falciparum luciferase growth in erythrocytes; series mostly up to 28.7 µM
# Procedure, shortened: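 Erythrocytes infected with P. falciparum carrying an integrated firefly luciferase reporter (2% hematocrit, 0.1% parasitemia final) were exposed to compounds in RPMI 1640 with 0.5% Albumax at 37 C, 5% CO2. Growth inhibition was scored as reduced luminescence.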
# Potency means the concentration at half of the fitted maximal effect; tags describe the fitted curve by direction and shape.
row,SMILES,Potency
1,O=C(N/N=C/c1cccnc1)C1CCCCC1,inactive
2,Cc1ccc(Cn2ccsc2=NC(=O)CCl)cc1,"inconclusive [inhibitor, partial curve, poor fit]"
3,Cn1ccnc1SCC(=O)Nc1ccc2c(c1)OC(F)(F)O2,inactive
4,CCOC(=O)C1=C(CSc2nc(-c3ccncc3)ccc2C#N)OC(N)=C(C#N)C1c1cccnc1 (centres undefined),active: 13.1 µM
5,COc1ccc(N2CCN(C(c3cccc(OC)c3OC)c3nnnn3C3CCCC3)CC2)cc1 (centres undefined),"inconclusive [inhibitor, single point]"
6,c1ccc(-c2nnc(SCC3CCCO3)nc2-c2ccccc2)cc1 (centres undefined),"inconclusive [inhibitor, single point]"
7,O=Cc1ccc(OCc2nnc(-c3ccccc3Br)o2)cc1,inactive
8,CC1CCN(C(=O)CCc2nnc(-c3ccccc3)o2)CC1,inactive
9,O=C(O)c1ccc(Oc2cc(Oc3ccc(C(=O)O)cc3)cc([N+](=O)[O-])c2)cc1,"inconclusive [inhibitor, full curve, poor fit]"
10,O=C(CN1CCN(c2nc(-c3ccc(Cl)cc3)cs2)CC1)NCc1ccco1,"inconclusive [inhibitor, partial curve, poor fit]"
11,Cc1[nH]c2ccc(Br)cc2c(=O)c1CN1CCCCC1,"inconclusive [inhibitor, full curve, poor fit]"
12,CSCCC(NC(=O)c1ccccc1)C(=O)NCCc1ccc2c(c1)OCCO2 (centres undefined),"inconclusive [inhibitor, partial curve, poor fit]"
13,CCOc1ccc(N2C(=O)CC(NC3CCN(C(=O)c4cccc(Cl)c4)CC3)C2=O)cc1 (centres undefined),inactive
14,COc1cccc(C(=O)C2CN(c3ccccc3)CC2c2ccc(Cl)cc2)c1 (centres undefined),active: 10.4 µM
15,Cc1ccc(Sc2ccc(CN3CCCCC3)cc2[N+](=O)[O-])cc1,"inconclusive [inhibitor, single point]"
16,O=c1c2ccccc2nc2n1C(CSCc1ccc(Cl)cc1)CS2 (centres undefined),"inconclusive [inhibitor, partial curve]"
17,O=C(NCCc1ccccc1)C(=O)NCCC1CCCCN1S(=O)(=O)c1ccccc1 (centres undefined),inactive
18,CCC(C)(C)NC(=O)C(c1ccc(OC)cc1)N(C(=O)CCC(=O)Nc1cc(C)on1)c1ccc(F)cc1 (centres undefined),"inconclusive [inhibitor, single point]"
19,CCOC(=O)c1c(NC(=O)CN2C(=O)NC(C)(c3ccc(Cl)cc3)C2=O)sc(C(=O)NC)c1C (centres undefined),active: 8.28 µM
20,CSCCC(NC(=O)c1ccccc1)C(=O)NCCCSc1ccccc1 (centres undefined),"inconclusive [inhibitor, partial curve, poor fit]"
21,Cc1ccc(-c2noc(CCC(=O)Nc3ccccc3N3CCN(C)CC3)n2)cc1,"inconclusive [inhibitor, full curve, poor fit]"
22,Cc1ccc(-c2nnn(C/C(N)=N/O)n2)cc1,"inconclusive [inhibitor, full curve]"
23,Cc1ccccc1NC(=O)c1c2c(nc3ccccc13)CCC2,inactive

row,SMILES,Potency
1,Cc1cc(=O)oc2c(C)c(OC(C)C(=O)NCC3CCC(C(=O)O)CC3)ccc12 (centres undefined),inactive
2,Cc1sc2nc(CSCC(=O)N(C)c3ccccc3)[nH]c(=O)c2c1C,"inconclusive [inhibitor, single point]"
3,CCOC(=O)C1=C(C)OC(N)=C(C#N)C12C(=O)N(C)c1ccccc12 (centres undefined),"inconclusive [inhibitor, partial curve]"
4,O=C(NCc1nnc(SCC(=O)N2CCc3ccccc32)o1)c1ccco1,inactive
5,C/C(=N\NC(=S)Nc1ccc(C)cc1)c1cccc(N)c1,"inconclusive [inhibitor, single point]"
6,C=C1c2cc(C)ccc2NC(=O)N1c1ccccc1,inactive
7,CNC(=S)N(CCc1ccc(S(N)(=O)=O)cc1)C1CC(=O)N(c2ccccc2F)C1=O (centres undefined),"inconclusive [inhibitor, partial curve]"
8,CCOc1ccc(Nc2nc(N)nc(CCl)n2)cc1,"inconclusive [inhibitor, partial curve]"
9,COc1ccc(N2CCN(C(=O)c3ccccc3N(C)S(=O)(=O)c3ccccc3)CC2)cc1,"inconclusive [inhibitor, partial curve]"
10,CN(Cc1nc(-c2ccccn2)no1)S(=O)(=O)c1ccc(Br)cc1,inactive
11,CC1CCCCC1NC(=O)CCNS(=O)(=O)c1cc(Br)cnc1N (centres undefined),inactive
12,Cc1ccc2[nH]c3c(=O)n(CC(=O)NCCCN4CCN(c5ccc(F)cc5)CC4)ncc3c2c1,inactive
13,O=C(CN1CCN(c2ccc(O)cc2)CC1)NCC(=O)Nc1ccc(F)c(F)c1F,"inconclusive [inhibitor, single point]"
14,Cc1cccc(NP(=O)(Oc2ccccc2)Oc2ccccc2)c1C,"inconclusive [inhibitor, single point]"
15,COC(=O)C(OC(=O)c1ccc(OC)cc1)C(=O)OC,"inconclusive [inhibitor, single point]"
16,CC1CN(c2ccc(Oc3ccccc3)cc2)c2nc3c(c(=O)[nH]c(=O)n3C)n2C1 (centres undefined),inactive
17,Cc1cc(C)cc(N(CC(=O)Nc2ccc(C)cc2Cl)S(=O)(=O)c2c(C)[nH]c(=O)[nH]c2=O)c1,"inconclusive [inhibitor, single point]"
18,CCC(C)(C)NC(=O)C(c1ccc(OC)cc1)N(C(=O)CCC(=O)Nc1cc(C)on1)c1cc(OC)ccc1OC (centres undefined),"inconclusive [inhibitor, partial curve]"
19,O=C(c1ccc(-c2ccccc2)cc1)C1CCCN(C(=O)c2cncs2)C1 (centres undefined),"inconclusive [inhibitor, single point]"
20,Cc1onc(-c2ccccc2)c1C(=O)N1CCOC12CCN(c1cccc(F)n1)CC2,"inconclusive [inhibitor, partial curve]"
21,O=C(OCC(=O)N1CCN(C(=O)c2ccco2)CC1)c1ccccc1Cc1ccccc1,"inconclusive [inhibitor, partial curve, poor fit]"
22,CCOc1ccc2c(C)nc(NC3=NC(C)(C)C=C(C)N3)nc2c1,active: 10.4 µM
23,COCCn1c(SCC(=O)N2CCCc3ccccc32)nc2c(c1=O)SC(C)C2 (centres undefined),"inconclusive [inhibitor, partial curve, poor fit]"

row,SMILES,Potency
1,CCOc1ccc(-c2c(C)sc3nc[nH]c(=O)c23)cc1,inactive
2,CC(C)C[C@H](NC(=O)c1[nH]cnc1C(=O)N[C@@H](Cc1ccccc1)C(=O)OCc1ccccc1)C(=O)OCc1ccccc1,"inconclusive [inhibitor, single point]"
3,CCOc1ccccc1NC(=O)CSc1nc2ccccc2nc1N1CCCC1,"inconclusive [inhibitor, partial curve]"
4,Cc1ccc(C(=O)N2CCCC(CCC(=O)N3CCN(c4ccccn4)CC3)C2)s1 (centres undefined),"inconclusive [inhibitor, partial curve]"
5,Cc1ccc(NC(=O)/C(=C\c2cccc(Br)c2)NC(=O)c2ccco2)cc1,"inconclusive [inhibitor, partial curve, poor fit]"
6,CCOC(=O)C1=C(c2ccccc2)NC(=S)NC1c1cc([N+](=O)[O-])ccc1OC (centres undefined),active: 11.7 µM
7,CSc1ccccc1NC(=O)CSc1nncs1,inactive
8,CCN(CC(=O)NCc1ccc(F)cc1)C(=O)C(C)Oc1cccc(Cl)c1 (centres undefined),inactive
9,COCCN(C(=O)CNC(=O)c1ccco1)C(C(=O)NC1CCCCC1)c1cccc(OC)c1 (centres undefined),"inconclusive [inhibitor, single point]"
10,Cc1cc(C)n(CC(=O)NNC(=O)c2cccc(C(F)(F)F)c2)n1,"inconclusive [inhibitor, full curve, poor fit]"
11,O=C(COC(=O)CNC(=O)c1cccc(F)c1)NCCC1=CCCCC1,inactive
12,CCOC(=O)c1c2ccc(OCC(=O)NN)cc2n2ccccc12,"inconclusive [inhibitor, partial curve, poor fit]"
13,O=C(OCC(O)CO)c1ccccc1Nc1ccnc2cc(Cl)ccc12 (centres undefined),active: 8.28 µM
14,CC(C)C[C@H](N)c1cn([C@@H](Cc2cc3ccccc3[nH]2)C(=O)N2CCNCC2)nn1,"inconclusive [inhibitor, single point]"
15,COC(=O)c1[nH]c2cccc(Cl)c2c1NC(=O)CN1CCCCC1C (centres undefined),"inconclusive [inhibitor, single point]"
16,O=C1C=C(c2ccccc2)C[C@H](c2cccs2)[C@H]1n1cnc([N+](=O)[O-])c1,active: 13.1 µM
17,Cc1cc(C)c(NC(=S)NC(NC(=O)c2ccccc2)C(Cl)(Cl)Cl)c(C)c1 (centres undefined),active: 3.29 µM
18,O=C(Nc1ccccc1)Nc1nnc(Cc2ccc(F)cc2)s1,"inconclusive [inhibitor, single point]"
19,Cc1nc(NC(=O)C2CC3CCCC(C2)C3=O)sc1C (centres undefined),inactive
20,CCCN1C2CCCC1CC(NC(=O)c1ccccc1OCC)C2 (centres undefined),"inconclusive [inhibitor, partial curve]"
21,OCCN1CCN(CC#CCC(c2ccccc2)c2ccccc2)CC1,"inconclusive [inhibitor, full curve]"
22,COc1ccc2c(c1)c(C(=O)CN1CCC3(CC1)OCCO3)c(C)n2Cc1ccccc1,"inconclusive [inhibitor, single point]"
23,O=C(COC(=O)c1cc(S(=O)(=O)N2CCOCC2)ccc1Cl)NC1CC1,inactive
